82 compounds from the supplement of paper PMC10670038 can be followed below.

Structures can show the parent of a compound that is named as a salt. ± gives the standard deviation of the averaged measurements. Over roughly 2,000 compounds, “relative cell viability vs DMSO, compound + 0.2 uM CuET” has its median near 1; the lowest 2% begin near 0.25. Some of the results follow.

The experiment has as its system TE10. In words: relative cell viability vs DMSO, compound + 0.2 uM CuET (fraction); TE10 is an esophageal squamous carcinoma line; higher = less cytotoxic. The note with it: 2 µM; co-treatment: CuET (bis(diethyldithiocarbamate)copper) 0.2 uM; 48 h. The procedure: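 TE10 ESCC cells (1,000/well, 384-well plates) were treated with Selleck bioactive library compounds at 2 uM combined with 0.2 uM CuET (copper diethyldithiocarbamate) for 48 h. Viability was read by CellTiter-Glo and expressed relative to DMSO wells. Two technical replicates (A, B).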
Take `O=C1CCc2cc(OCCCCc3nnnn3C3CCCCC3)ccc2N1` [Cilostazol]: the relative cell viability was 1.25 ± 0.091.

`CCCCOc1cc(C(=O)NCCN(CC)CC)c2ccccc2n1` [Dibucaine HCl]: the relative cell viability was determined as 1.08 ± 0.17. Turning to `CCNC(=O)C#Cc1ccc2c(C(=Nc3ccc(CN(C)C)cc3)c3ccccc3)c(O)[nH]c2c1`, the relative cell viability stood at 0.753 ± 0.045. For `CCOC(=O)c1ccc(NC(=O)O[C@H]2[C@H](OC(=O)Nc3ccc4c(c3)OCO4)[C@@H](OC(=O)Nc3ccc4c(c3)OCO4)[C@@H](OC)O[C@@H]2CO)cc1` the value was 1.1 ± 0.08. With `Nc1ncnc2c1c(-c1cnc3[nH]ccc3c1)nn2C1CCCC1`, the relative cell viability was 0.704 ± 0.0074. `Cc1nc(NC(=O)N2CCC[C@H]2C(N)=O)sc1-c1ccnc(C(C)(C)C(F)(F)F)c1`: the relative cell viability worked out at 0.569 ± 0.28. As to `CC(C)NCC(O)COc1cccc2ccccc12` (configuration not stated) [Propranolol HCl], the relative cell viability was determined as 1.17 ± 0.11. Turning to `CN(C)CCSSCCNC(=O)C1CCN(C(=O)CSc2ccc(Cl)cc2)CC1`, the relative cell viability came out at 1.05 ± 0.11. Regarding `COC(=O)[C@@H]1[C@H]2C[C@H]3c4[nH]c5ccccc5c4CCN3C[C@@H]2CC[C@@H]1O` [Yohimbine HCl], the relative cell viability worked out at 1.03 ± 0.026.

As to `CC(C)C[C@H](NC(=O)[C@H]1O[C@@H]1C(=O)O)C(=O)NCCCCN=C(N)N`, the relative cell viability is 1.17 ± 0.11. `Cc1[nH]c(/C=C2\C(=O)Nc3ccc(S(=O)(=O)N(C)c4cccc(Cl)c4)cc32)c(C)c1C(=O)N1CCN(C)CC1`: the relative cell viability worked out at 1.14 ± 0.041. With `O=C(/C=C\n1cnc(-c2cc(C(F)(F)F)cc(C(F)(F)F)c2)n1)NNc1cnccn1`, the relative cell viability was 0.29 ± 0.015. Regarding `CN(C)Cc1ccc(-c2nc3cccc4c3n2CCNC4=O)cc1`, the relative cell viability was determined as 1.23 ± 0.14. `CN(C)CC[C@H](CSc1ccccc1)Nc1ccc(S(=O)(=O)NC(=O)c2ccc(N3CCN(Cc4ccccc4-c4ccc(Cl)cc4)CC3)cc2)cc1[N+](=O)[O-]`: the relative cell viability stood at 0.412 ± 0.11.

Regarding `C[C@H]1COC2=C1C(=O)C(=O)c1c2ccc2c1CCCC2(C)C` [Cryptotanshinone], the relative cell viability is 0.336 ± 0.066.

With `NC(=O)Cc1cccc(C(=O)c2ccccc2)c1N` [Nepafenac], the relative cell viability is 1.28 ± 0.25. Take `CCCCCCCCC/C(=C\C1=C(C)C(=O)C(OC)=C(OC)C1=O)C(=O)O`: the relative cell viability is 1.16 ± 0.17. Turning to `O=[N+]([O-])c1ccc2c(c1)S(=O)(=O)C=C2` [Stattic], the relative cell viability is 0.204 ± 0.018. For `CC[C@H]1OC(=O)[C@H](C)[C@@H](O[C@H]2C[C@@](C)(OC)[C@@H](O)[C@H](C)O2)[C@H](C)[C@@H](O[C@@H]2O[C@H](C)C[C@H](N(C)C)[C@H]2O)[C@](C)(OC)C[C@@H](C)C(=O)[C@H](C)[C@@H](O)[C@]1(C)O` [Clarithromycin] the value was 1.11 ± 0.028.

For `CCCCOc1c(C(=O)c2c(F)cc(C)cc2F)c[nH]c2nncc1-2`, the relative cell viability worked out at 0.835 ± 0.055. For the compound `Nc1ccccc1NC(=O)c1ccc(CNC(=O)OCc2cccnc2)cc1` [Entinostat (MS-275)], the relative cell viability was 0.321 ± 0.033. The figure for `N=C(N)NC(=O)c1nc(Cl)c(N)nc1N` [Amiloride hydrochloride dihydrate] is 1.12 ± 0.13; for `N=C(N)NC(=O)c1nc(Cl)c(N)nc1N` [Amiloride HCl] it is 1.03 ± 0.073. Consider `CC(C)C[C@@H]1NC(=O)[C@@H](C(C)C)NC(=O)[C@@H]2CCCN2C(=O)[C@@H](CC(=O)O)NC(=O)[C@@H](Cc2c[nH]c3ccccc23)NC1=O`, for which the relative cell viability came out at 1.17 ± 0.11. In the case of `CN(C)C(=O)COC(=O)Cc1ccc(OC(=O)c2ccc(NC(=N)N)cc2)cc1` [Camostat Mesilate], the relative cell viability was 1.13 ± 0.18. Take `CCOc1cc([C@@H](CS(C)(=O)=O)N2C(=O)c3cccc(NC(C)=O)c3C2=O)ccc1OC`: the relative cell viability came out at 1.12 ± 0.033. Turning to `O=C(O)c1cc(=O)c2ccccc2o1` [Chromocarb], the relative cell viability worked out at 0.961 ± 0.088. Consider `CCc1cncnc1N1CCN(Cc2nc3ccc(C(F)(F)F)cc3[nH]2)CC1`, for which the relative cell viability worked out at 1.1 ± 0.21. The figure for `CC1=C(C(=O)OC(C)C)C(c2cccc([N+](=O)[O-])c2)C(C(=O)OC2CN(C(c3ccccc3)c3ccccc3)C2)=C(N)N1` (configuration not stated) [Azelnidipine] is 0.976 ± 0.023; for `Cc1cc(C2CCCCC2)n(O)c(=O)c1` [Ciclopirox] it is 0.697 ± 0.013; for `Cc1cc(C2CCCCC2)n(O)c(=O)c1` [Ciclopirox ethanolamine] it is 0.602 ± 0.084. `CN[C@H]1CN(c2ccc3c(=O)c(C(=O)O)cn(-c4nccs4)c3n2)C[C@@H]1OC` [Voreloxin (SNS-595)]: the relative cell viability came out at 1.015 ± 0.0091. Regarding `COc1cc(C(=O)NS(=O)(=O)c2ccccc2C)ccc1Cc1cn(C)c2ccc(NC(=O)OC3CCCC3)cc12` [Zafirlukast], the relative cell viability came out at 1.08 ± 0.019.

For `NS(=O)(=O)c1cc2c(cc1Cl)N=CNS2(=O)=O` [Chlorothiazide], the relative cell viability was 0.944 ± 0.012. Regarding `COc1ccc(-c2cnc3c(-c4cccc5ncccc45)cnn3c2)cc1`, the relative cell viability came to 1.17 ± 0.13.

Consider `COc1cc2ncnc(Oc3cccc(NC(=O)Nc4cc(C(C)(C)C(F)(F)F)on4)c3)c2cc1OC`, for which the relative cell viability turned out to be 1.1 ± 0.061.

In the case of `O=c1c(O)c(-c2ccc(O)c(O)c2)oc2cc(O)ccc12` [Fisetin], the relative cell viability came to 0.98 ± 0.081.

In the case of `NCC(=O)Nc1ccc(-n2nc(C(F)(F)F)cc2-c2ccc3c(ccc4ccccc43)c2)cc1`, the relative cell viability is 0.649 ± 0.017. In the case of `COc1ccc(-c2nc3cc(C4=NNC(=O)CC4C)ccc3[nH]2)cc1` (configuration not stated) [Pimobendan], the relative cell viability turned out to be 0.888 ± 0.033. Take `Cc1ccc(S(=O)(=O)n2c(N)nc3ccccc32)cc1` [ML130 (Nodinitib-1)]: the relative cell viability came to 1.07 ± 0.088. Consider `NC(=O)c1ncn([C@@H]2O[C@H](CO)[C@@H](O)[C@H]2O)n1` [Ribavirin], for which the relative cell viability stood at 0.937 ± 0.11.

Regarding `CCOC(=O)[C@H](CCc1ccccc1)N[C@@H](C)C(=O)N1[C@H](C(=O)O)C[C@@H]2CCC[C@@H]21` [Ramipril], the relative cell viability was 1.1 ± 0.12. The figure for `Cc1ccnc2c1NC(=O)c1cccnc1N2C1CC1` [Nevirapine] is 1.201 ± 0.0018. The figure for `CN(C)CCC=C1c2ccccc2CCc2ccccc21` [Amitriptyline HCl] is 0.901 ± 0.19. Regarding `Cc1[nH]c(=O)c(C#N)cc1-c1ccncc1` [Milrinone], the relative cell viability was 1.13 ± 0.024. `CC(C)[C@H](CO)Nc1nc(Nc2cccc(Cl)c2)c2ncn(C(C)C)c2n1` [Purvalanol A]: the relative cell viability came to 0.761 ± 0.03.

Take `CS(=O)(=O)c1ccc(C2=C(c3ccccc3)C(=O)OC2)cc1` [Rofecoxib]: the relative cell viability amounted to 1.28 ± 0.088. The figure for `Cn1c(=O)c2[nH]cnc2n(C)c1=O` [Aminophylline] is 1.15 ± 0.14; for `CC(=O)c1cc([N+](=O)[O-])c(Sc2cccc(Cl)c2Cl)s1` it is 0.4585 ± 0.0011; for `O=C(Nc1ccccc1)c1ccccc1O` [Salicylanilide] it is 1.065 ± 0.0055. `CN1C(C(=O)Nc2ccccn2)=C(O)c2sccc2S1(=O)=O` [Tenoxicam]: the relative cell viability is 0.867 ± 0.054. Turning to `N#Cc1ccc2[nH]cc(CCCCN3CCN(c4ccc5oc(C(N)=O)cc5c4)CC3)c2c1` [Vilazodone HCl], the relative cell viability was 0.987 ± 0.054.

`Cc1ncc([N+](=O)[O-])n1CC(O)CCl` (configuration not stated) [Ornidazole]: the relative cell viability is 1.04 ± 0.006. With `CCc1nc(-c2cccc(C)c2)c(-c2ccnc(NC(=O)c3ccccc3)c2)s1`, the relative cell viability stood at 1.03 ± 0.14. On to `Cc1cccc(C)c1NC(=O)C1CCCCN1C` (configuration not stated) [Mepivacaine HCl], for which the relative cell viability was found to be 0.949 ± 0.12. With `Cc1c(C(N)=O)cc([N+](=O)[O-])cc1[N+](=O)[O-]` [Dinitolmide], the relative cell viability was found to be 1.11 ± 0.034. The figure for `N=C(N)N` [Guanidine HCl] is 1.05 ± 0.14; for `N#CC(=Cc1ccc(O)c(O)c1)C(=O)NCc1ccccc1` [AG-490 (Tyrphostin B42)] it is 1.11 ± 0.12. Consider `CC1(COc2ccc3c(c2)ncn3-c2ccc3cccc(N4CCC(N)CC4)c3n2)COC1`, for which the relative cell viability came out at 1.41 ± 0.15. For the compound `COc1ccccc1-c1cc(Nc2cccc(CS(N)(=O)=O)c2)ncn1`, the relative cell viability stood at 0.929 ± 0.14. For `CNCC[C@H](Oc1cccc2ccccc12)c1cccs1` [Duloxetine HCl] the value was 1.09 ± 0.21.

As for `C[C@@H](Oc1cc(-n2cnc3ccc(CN4CCN(C)CC4)cc32)sc1C(N)=O)c1ccccc1C(F)(F)F`, the relative cell viability is 0.912 ± 0.01. As to `C=CC(=O)N1CC(=Cc2ccc([N+](=O)[O-])cc2)C(=O)C(=Cc2ccc([N+](=O)[O-])cc2)C1`, the relative cell viability was determined as 0.126 ± 0.015. Consider `COc1cc2c(cc1OC)CN(CCc1ccc(NC(=O)c3cc(OC)c(OC)cc3NC(=O)c3cnc4ccccc4c3)cc1)CC2` [Tariquidar], for which the relative cell viability is 1.16 ± 0.044.

For the compound `COc1cc(Cc2cnc(N)nc2N)cc(OC)c1OC` [Trimethoprim], the relative cell viability worked out at 1.13 ± 0.075. Consider `CC(C)(Sc1cc(C(C)(C)C)c(O)c(C(C)(C)C)c1)Sc1cc(C(C)(C)C)c(O)c(C(C)(C)C)c1` [Probucol], for which the relative cell viability amounted to 0.986 ± 0.15.

For the compound `Cn1ccnc1S` [Methimazole], the relative cell viability was 1.06 ± 0.013. Regarding `Nc1c(Br)cc(Br)cc1CN[C@H]1CC[C@H](O)CC1` [Ambroxol HCl], the relative cell viability turned out to be 1.21 ± 0.17. For `CS(=O)(=O)CCNCc1ccc(-c2ccc3ncnc(Nc4ccc(OCc5cccc(F)c5)c(Cl)c4)c3c2)o1` [Lapatinib], the relative cell viability came out at 0.824 ± 0.029. With `CS(=O)(=O)CCNCc1ccc(-c2ccc3ncnc(Nc4ccc(OCc5cccc(F)c5)c(Cl)c4)c3c2)o1`, the relative cell viability is 1.14 ± 0.11. Regarding `C=CC(=O)Nc1cccc(Nc2nc(Nc3ccc(N4CCN(C(C)=O)CC4)cc3OC)ncc2C(F)(F)F)c1`, the relative cell viability turned out to be 0.887 ± 0.011. In the case of `CC(C)(C)C(=O)OCOP(=O)(COCCn1cnc2c(N)ncnc21)OCOC(=O)C(C)(C)C` [Adefovir Dipivoxil], the relative cell viability came to 1.02 ± 0.035.

Take `COc1ccc(CCNCc2ccc(OCc3ccc(Cl)nc3)c(OC)c2)cc1OC`: the relative cell viability was determined as 0.9746 ± 0.0029. With `COc1cc(OC)c(C(=O)CCCN2CCCC2)c(OC)c1` [Buflomedil HCl], the relative cell viability amounted to 1.17 ± 0.035. For `O=c1ccc2ccc(O)c(O)c2o1` [Daphnetin], the relative cell viability amounted to 0.816 ± 0.012. For `N#CC(c1ccc(Cl)cc1)c1c(Cl)cc(-n2ncc(=O)[nH]c2=O)cc1Cl` (configuration not stated) [Diclazuril], the relative cell viability turned out to be 0.797 ± 0.025. On to `O=C(O)CC[C@H]1CC[C@@](c2cc(F)ccc2F)(S(=O)(=O)c2ccc(Cl)cc2)CC1`, for which the relative cell viability was found to be 0.915 ± 0.047. As to `CN1CCC(=C2c3ccccc3CC(=O)c3sccc32)CC1` [Ketotifen Fumarate], the relative cell viability is 0.938 ± 0.029. With `COc1ccccc1N1CCN(CC(O)COc2cccc3ccccc23)CC1` (configuration not stated) [Naftopidil DiHCl], the relative cell viability was determined as 1.23 ± 0.11. `COc1ccccc1N1CCN(CC(O)COc2cccc3ccccc23)CC1` (configuration not stated) [Naftopidil]: the relative cell viability amounted to 0.881 ± 0.078.

For `CS(=O)(=O)c1cccc(CNc2nc(Nc3ccc4c(c3)CCC(=O)N4)ncc2C(F)(F)F)c1`, the relative cell viability is 0.879 ± 0.089.

Regarding `CC(C)(C)n1nc(-c2ccc(Cl)cc2)c2c(N)ncnc21`, the relative cell viability was 1.02 ± 0.0099.
